Article PMC4747173
Results are given in words; binding and its absence hold for the method and conditions named. Binding seen in cells or lysates may run through a third protein. Some binding calls cover weakened binding; strength is not graded here.

The chains behind the UniProt entries cited, without tags or fusion partners.
UniProt O14777: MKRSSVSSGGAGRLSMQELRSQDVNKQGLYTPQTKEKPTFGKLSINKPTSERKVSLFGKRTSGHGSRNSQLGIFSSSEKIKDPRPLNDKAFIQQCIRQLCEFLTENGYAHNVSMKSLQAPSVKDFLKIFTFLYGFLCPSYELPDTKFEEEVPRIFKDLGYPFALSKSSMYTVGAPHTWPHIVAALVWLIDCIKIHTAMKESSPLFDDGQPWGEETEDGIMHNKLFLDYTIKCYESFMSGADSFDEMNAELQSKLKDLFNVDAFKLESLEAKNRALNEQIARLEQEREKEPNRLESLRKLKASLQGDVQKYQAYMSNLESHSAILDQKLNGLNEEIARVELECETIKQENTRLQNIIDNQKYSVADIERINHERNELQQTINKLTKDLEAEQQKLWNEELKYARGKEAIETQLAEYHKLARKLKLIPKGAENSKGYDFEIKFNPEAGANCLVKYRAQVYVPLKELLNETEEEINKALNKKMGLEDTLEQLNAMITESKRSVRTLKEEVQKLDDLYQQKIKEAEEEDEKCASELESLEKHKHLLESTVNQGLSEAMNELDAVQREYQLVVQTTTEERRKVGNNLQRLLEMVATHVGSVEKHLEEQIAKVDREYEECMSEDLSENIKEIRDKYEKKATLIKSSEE
UniProt P62136: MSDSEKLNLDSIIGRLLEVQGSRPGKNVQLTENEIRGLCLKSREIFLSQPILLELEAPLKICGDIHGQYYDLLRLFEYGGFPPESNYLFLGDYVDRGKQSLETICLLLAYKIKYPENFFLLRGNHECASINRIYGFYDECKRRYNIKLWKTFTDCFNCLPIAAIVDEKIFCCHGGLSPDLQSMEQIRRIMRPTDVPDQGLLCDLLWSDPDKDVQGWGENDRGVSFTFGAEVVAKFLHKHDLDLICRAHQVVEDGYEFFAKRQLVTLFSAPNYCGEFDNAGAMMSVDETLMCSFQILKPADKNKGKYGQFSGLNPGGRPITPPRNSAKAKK

How the values were obtained:
Assay in all cases: co-IP; 293T cells co-transfected with tagged constructs, lysates after 24 hr, immunoprecipitation with anti-Flag antibody, Western blot; for Hec1 and PP1α with or without co-expressed ASPP1/2 (WT or mRVXF)
[1] = target: Hec1 (construct co-transfected in 293T cells for Figure 5f) (UniProt O14777)
[2] = target: T1, FH-ASPP1 (transfected in 293T cells) (UniProt Q96KQ4)
T1 sequence: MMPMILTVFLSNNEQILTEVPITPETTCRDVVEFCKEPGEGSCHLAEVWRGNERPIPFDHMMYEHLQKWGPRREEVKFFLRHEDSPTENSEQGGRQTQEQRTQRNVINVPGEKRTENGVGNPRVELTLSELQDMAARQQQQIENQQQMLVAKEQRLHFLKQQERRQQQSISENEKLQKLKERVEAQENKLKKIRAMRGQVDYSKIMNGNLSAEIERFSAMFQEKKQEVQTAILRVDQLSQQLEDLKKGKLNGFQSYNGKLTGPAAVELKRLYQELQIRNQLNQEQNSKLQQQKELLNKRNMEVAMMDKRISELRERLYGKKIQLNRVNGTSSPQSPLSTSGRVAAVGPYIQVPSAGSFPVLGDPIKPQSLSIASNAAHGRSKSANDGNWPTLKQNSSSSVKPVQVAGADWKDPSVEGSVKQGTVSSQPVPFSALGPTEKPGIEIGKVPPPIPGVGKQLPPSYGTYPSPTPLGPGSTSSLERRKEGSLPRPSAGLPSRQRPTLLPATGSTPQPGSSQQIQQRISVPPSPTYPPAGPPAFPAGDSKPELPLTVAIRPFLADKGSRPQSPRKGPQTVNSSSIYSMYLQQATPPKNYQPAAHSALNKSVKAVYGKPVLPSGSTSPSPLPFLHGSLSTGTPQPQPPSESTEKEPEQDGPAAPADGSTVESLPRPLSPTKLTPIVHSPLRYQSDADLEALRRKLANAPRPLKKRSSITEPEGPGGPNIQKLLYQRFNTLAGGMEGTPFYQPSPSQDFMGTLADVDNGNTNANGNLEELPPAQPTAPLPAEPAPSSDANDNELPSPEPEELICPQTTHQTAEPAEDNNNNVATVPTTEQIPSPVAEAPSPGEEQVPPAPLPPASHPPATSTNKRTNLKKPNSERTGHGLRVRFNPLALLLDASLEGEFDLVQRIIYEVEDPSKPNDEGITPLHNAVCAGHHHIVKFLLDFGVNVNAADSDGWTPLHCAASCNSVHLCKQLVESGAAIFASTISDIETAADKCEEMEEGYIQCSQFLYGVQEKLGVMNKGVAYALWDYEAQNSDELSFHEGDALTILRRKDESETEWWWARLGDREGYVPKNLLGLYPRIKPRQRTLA

[3] = target: T2, FH-iASPP (transfected in 293T cells) (UniProt Q8WUF5)
T2 sequence: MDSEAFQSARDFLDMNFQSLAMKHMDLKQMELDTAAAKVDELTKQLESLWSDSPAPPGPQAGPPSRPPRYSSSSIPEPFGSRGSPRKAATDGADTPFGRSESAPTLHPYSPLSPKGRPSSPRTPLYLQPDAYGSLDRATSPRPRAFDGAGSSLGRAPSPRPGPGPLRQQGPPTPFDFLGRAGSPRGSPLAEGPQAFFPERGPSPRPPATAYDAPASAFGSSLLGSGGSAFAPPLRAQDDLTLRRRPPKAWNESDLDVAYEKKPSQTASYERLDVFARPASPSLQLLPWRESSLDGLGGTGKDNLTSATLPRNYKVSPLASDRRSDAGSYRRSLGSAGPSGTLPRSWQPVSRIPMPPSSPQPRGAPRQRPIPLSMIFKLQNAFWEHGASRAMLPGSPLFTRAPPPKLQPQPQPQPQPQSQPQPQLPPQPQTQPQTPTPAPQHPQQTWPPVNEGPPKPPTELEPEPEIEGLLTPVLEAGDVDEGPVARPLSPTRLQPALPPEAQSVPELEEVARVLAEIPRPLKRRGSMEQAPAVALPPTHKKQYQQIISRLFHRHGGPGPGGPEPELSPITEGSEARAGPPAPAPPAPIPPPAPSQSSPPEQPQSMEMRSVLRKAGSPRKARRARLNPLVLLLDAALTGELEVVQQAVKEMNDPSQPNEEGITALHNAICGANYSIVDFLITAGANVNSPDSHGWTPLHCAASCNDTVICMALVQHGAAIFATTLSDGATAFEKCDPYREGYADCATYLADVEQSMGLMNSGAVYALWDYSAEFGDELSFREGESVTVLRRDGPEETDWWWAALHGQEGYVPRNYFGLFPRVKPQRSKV

[4] = target: T3, FH-ASPP2-WT (transfected in 293T cells) (UniProt Q13625)
T3 sequence: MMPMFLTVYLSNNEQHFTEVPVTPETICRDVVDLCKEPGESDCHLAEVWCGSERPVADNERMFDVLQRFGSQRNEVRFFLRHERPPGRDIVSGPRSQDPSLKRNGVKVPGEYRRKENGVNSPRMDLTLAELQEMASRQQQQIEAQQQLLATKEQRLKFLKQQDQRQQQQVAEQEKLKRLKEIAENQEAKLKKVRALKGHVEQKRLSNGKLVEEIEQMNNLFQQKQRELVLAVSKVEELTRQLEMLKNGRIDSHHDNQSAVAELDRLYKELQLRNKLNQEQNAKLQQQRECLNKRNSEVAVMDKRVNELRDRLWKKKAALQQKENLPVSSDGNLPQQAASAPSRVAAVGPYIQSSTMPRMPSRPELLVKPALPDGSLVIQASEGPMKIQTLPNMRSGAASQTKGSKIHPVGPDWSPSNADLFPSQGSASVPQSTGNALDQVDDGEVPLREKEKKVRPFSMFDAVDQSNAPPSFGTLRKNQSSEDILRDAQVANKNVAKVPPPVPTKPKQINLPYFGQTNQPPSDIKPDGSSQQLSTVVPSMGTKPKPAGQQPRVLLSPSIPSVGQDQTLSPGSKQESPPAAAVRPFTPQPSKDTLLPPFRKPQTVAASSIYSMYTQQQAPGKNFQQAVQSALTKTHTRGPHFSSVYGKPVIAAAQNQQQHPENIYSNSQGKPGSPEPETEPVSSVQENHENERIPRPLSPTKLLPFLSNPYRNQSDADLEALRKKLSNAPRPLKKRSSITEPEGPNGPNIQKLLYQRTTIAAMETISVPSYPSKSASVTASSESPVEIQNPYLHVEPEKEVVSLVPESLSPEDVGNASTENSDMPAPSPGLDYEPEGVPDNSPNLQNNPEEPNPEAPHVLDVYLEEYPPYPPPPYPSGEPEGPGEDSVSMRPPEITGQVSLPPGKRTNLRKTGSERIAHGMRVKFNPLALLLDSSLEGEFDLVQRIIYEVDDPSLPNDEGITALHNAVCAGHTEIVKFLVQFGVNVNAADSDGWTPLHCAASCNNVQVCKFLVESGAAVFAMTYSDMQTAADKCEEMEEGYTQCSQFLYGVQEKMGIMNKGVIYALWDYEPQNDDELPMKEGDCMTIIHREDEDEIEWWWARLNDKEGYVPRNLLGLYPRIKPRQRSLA

binding [1]	binding [2]	binding [3]	binding [4]	Substance
binds	–	–	–	PP1α (construct co-transfected in 293T cells for Figure 5f) (from UniProt P62136 1-330) (enzyme)
–	binds	no binding	binds	Myc-Hec1 (transfected in 293T cells) (from UniProt O14777 1-642)
